Experimental data published in the antibiotic and cytotoxicity screens of Wong et al. (2023).
The other results are listed elsewhere or left out.

What follows are compounds tested on HepG2 (assay: cytotoxicity call (relative viability < 0.9)). Conditions: 10 µM.

| SMILES | cytotoxicity call |
| --- | --- |
| CN(C)CCN1CCN(C)C2(CCN(C(=O)[C@H]3CCCO3)CC2)C1=O | inactive |
| COCCN(C)C(=O)c1ccc2nnc([C@H]3CN(S(C)(=O)=O)CCN3C)n2c1 | inactive |
| Cn1cc(CN2CCn3nnc(CO)c3C2)cn1 | inactive |
| COc1ccc(CN(C)C[C@@H]2OCCCC[C@@H](C)Oc3ccc(NC(=O)c4ccccc4)cc3C(=O)N([C@H](C)CO)C[C@H]2C)cc1 | inactive |
| O=C(N[C@@H]1CC[C@@H](CCNS(=O)(=O)c2ccccc2)O[C@@H]1CO)c1cnccn1 | inactive |
| COc1ccc(C(=O)C=Cc2ccccc2)cc1 | active |
| CC(=O)[C@]1(N)Cc2c(O)c3c(c(O)c2[C@@H](O[C@H]2C[C@H](O)[C@H](O)CO2)C1)C(=O)c1ccccc1C3=O | active |
| C[C@@H]1CN([C@@H](C)CO)S(=O)(=O)c2ccc(C3=CCCC3)cc2O[C@H]1CN(C)C(=O)c1cnccn1 | inactive |
| N[C@@H](Cc1ccc(O)c(O)c1)C(=O)O | inactive |
| COc1ccc(NC(=O)N(C)C[C@H]2Oc3ccc(NC(=O)C4CC4)cc3C(=O)N([C@@H](C)CO)C[C@@H]2C)cc1 | inactive |
| Cc1noc(C)c1NC(=O)N(C)C[C@@H]1Oc2ccc(NC(=O)C3CC3)cc2CC(=O)N([C@@H](C)CO)C[C@H]1C | inactive |
| C[C@H](CO)N1C[C@H](C)[C@@H](CN(C)Cc2ccc(C(F)(F)F)cc2)OCCCC[C@H](C)Oc2ccc(NS(=O)(=O)c3cn(C)cn3)cc2C1=O | inactive |
| Cc1noc(C)c1NC(=O)Nc1cccc2c1O[C@@H](CN(C)C(=O)Nc1cccc3ccccc13)[C@H](C)CN([C@@H](C)CO)C2=O | inactive |
| Cc1cccc(-c2ccc3c(c2)O[C@H](CN(C)Cc2ccc(C(=O)O)cc2)CCN(C(C)C)S3(=O)=O)c1 | inactive |
| C[C@H]1CN([C@@H](C)CO)C(=O)c2cc(NC(=O)CCN3CCOCC3)ccc2O[C@H]1CN(C)CC1CC1 | inactive |
| O=c1[nH]c(=O)c2ccccc2o1 | inactive |

These compounds were tested on S. aureus RN4220 (assay: growth inhibition call (relative growth <= 0.2)). Conditions: 50 µM.

| SMILES | growth inhibition call |
| --- | --- |
| C[C@@H]1CN([C@@H](C)CO)C(=O)Cc2cc(NC(=O)c3ccncc3)ccc2O[C@@H]1CN(C)Cc1ccc2c(c1)OCO2 | inactive |
| C[C@@H]1CN([C@H](C)CO)C(=O)Cc2cc(N(C)C)ccc2O[C@@H]1CN(C)S(=O)(=O)c1ccc(F)cc1 | inactive |
| Cc1ccc(S(=O)(=O)N[C@H]2CC[C@@H](CC(=O)N3CCC(Cc4ccccc4)CC3)O[C@H]2CO)cc1 | inactive |
| C[C@H](CO)N1C[C@H](C)[C@@H](CN(C)C(=O)c2ccncc2)OCCCC[C@H](C)Oc2ccc(NC(=O)C3CCCCC3)cc2C1=O | inactive |
| COc1ccc(NC(=O)N(C)C[C@@H]2OCCCC[C@@H](C)Oc3ccc(NS(=O)(=O)c4ccc(OC)cc4)cc3C(=O)N([C@H](C)CO)C[C@H]2C)cc1 | inactive |
| O=C(C[C@@H]1C[C@H]2c3cc(NS(=O)(=O)c4ccccc4)ccc3O[C@H]2[C@H](CO)O1)NC1CCCCC1 | inactive |
| Cc1ccc(-n2nnc(C(N)=O)c2C)cc1 | inactive |
| C=c1cc(C)cc(C)c1=C1NN=C(N)S1 | inactive |
| C[C@@H]1CN([C@@H](C)CO)C(=O)c2cc(NC(=O)Cn3cnnn3)ccc2O[C@@H]1CN(C)Cc1ccccc1 | inactive |
| Cc1ccc(S(=O)(=O)Nc2cccc3c2O[C@H](CN(C)Cc2ccc(C(F)(F)F)cc2)[C@@H](C)CN([C@H](C)CO)C3=O)cc1 | inactive |
| OCC(O)C(O)C(OC1OC(CO)C(O)C(O)C1O)C(O)CO (centres undefined) | inactive |
| C[C@H]1CCCCO[C@H](CN(C)C(=O)c2ccccc2)[C@@H](C)CN([C@@H](C)CO)C(=O)c2cc(NS(=O)(=O)c3ccccc3)ccc2O1 | inactive |
| C[C@H]1CN([C@@H](C)CO)C(=O)Cc2cc(NC(=O)CCN3CCOCC3)ccc2O[C@H]1CN(C)C(=O)Nc1ccccc1 | inactive |
| CN1CCN(S(C)(=O)=O)CC1 | inactive |
| C[C@H](CO)N1C[C@H](C)[C@@H](CN(C)S(=O)(=O)c2ccccc2)OCCCC[C@H](C)Oc2ccc(NC(=O)Nc3ccc4c(c3)OCO4)cc2C1=O | inactive |
| C[C@@H]1CN([C@@H](C)CO)S(=O)(=O)c2ccc(C#C[C@@H](C)O)cc2O[C@@H]1CN(C)C(=O)c1ccncc1 | inactive |
| O=c1[nH]cc(NCc2ccccc2)c(=O)[nH]1 | inactive |
| Cc1ccc(S(=O)(=O)Nc2ccc3c(c2)C(=O)N([C@H](C)CO)C[C@H](C)[C@@H](CN(C)S(=O)(=O)c2ccc(F)cc2)OCCCC[C@@H](C)O3)cc1 | inactive |
